Test results taken from patent US20250332227A1, “PEROXIDASE BASED BIOCONTROL AGENTS” (ACIES BIO D.O.O., priority 2022, published 2025).
Where two headings read alike, the source gives them in different places.

Assays:
[1] = tested on: Hydrocoleum sp. heme peroxidase HydPOX fragment HydPOXs (amino acids 117 to 659 of SEQ ID NO: 1, without proregion), SEQ ID NO: 18 / 26 (His6-tag); details: ABTS 0.025-5 mM
[2] = tested on: Lyngbya sp. PCC 8106 peroxidase LspPOX, mature protein amino acids 117-661 of SEQ ID NO: 12 (His6-tag); details: ABTS 0.025-10 mM, phosphate pH 6.0, 25° C.
[3] = tested on: Lyngbya sp. PCC 8106 peroxidase LspPOX, mature protein amino acids 117-661 of SEQ ID NO: 12 (His6-tag); details: ABTS 0.025-5 mM
[4] = tested on: Lyngbya sp. PCC 8106 peroxidase LspPOX, mature protein amino acids 117-661 of SEQ ID NO: 12 (His6-tag); details: ABTS 0.025-10 mM
[5] = target: T1, Okeania hirsuta heme peroxidase OkePOX fragment OkePOXs (amino acids 117 to 659 of SEQ ID NO: 11, without proregion), SEQ ID NO: 25 / 27 (His6-tag) (Okeania hirsuta, UniProt A0A3N6PIS3)
T1 sequence (A0A3N6PIS3 117-659): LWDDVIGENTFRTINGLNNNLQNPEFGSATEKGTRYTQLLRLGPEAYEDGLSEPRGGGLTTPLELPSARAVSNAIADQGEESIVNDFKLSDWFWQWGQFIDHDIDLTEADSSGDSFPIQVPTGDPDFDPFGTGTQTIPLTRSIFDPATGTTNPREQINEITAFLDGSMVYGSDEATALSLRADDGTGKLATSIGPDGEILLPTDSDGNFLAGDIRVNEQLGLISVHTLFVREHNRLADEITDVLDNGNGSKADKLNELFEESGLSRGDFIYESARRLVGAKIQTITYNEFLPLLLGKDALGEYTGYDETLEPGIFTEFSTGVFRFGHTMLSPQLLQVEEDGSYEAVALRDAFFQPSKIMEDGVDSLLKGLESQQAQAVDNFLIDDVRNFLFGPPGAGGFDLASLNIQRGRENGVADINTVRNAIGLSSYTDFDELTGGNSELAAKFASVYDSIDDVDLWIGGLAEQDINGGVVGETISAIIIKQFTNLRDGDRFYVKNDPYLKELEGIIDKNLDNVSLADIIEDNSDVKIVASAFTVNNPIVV

[6] = tested on: Hydrocoleum sp. heme peroxidase HydPOX fragment HydPOXs (amino acids 117 to 659 of SEQ ID NO: 1, without proregion), SEQ ID NO: 18 / 26 (His6-tag)
[7] = tested on: Lyngbya sp. PCC 8106 peroxidase LspPOX, mature protein amino acids 117-661 of SEQ ID NO: 12 (His6-tag)
[8] = 100 μM H2O2, 6.45 nM peroxidase, sodium acetate pH 5.0, 25° C.
[9] = 100 μM H2O2, sodium acetate pH 5.0, 25° C.
[10] = KI 0.03-4 mM, 0.1 mM H2O2, 100 μM thymol blue, phosphate pH 7.2, room temperature, sigmoidal fit
[11] = KI 0.03-4 mM, 0.1 mM H2O2, phosphate pH 7.2, room temperature

| SMILES | Vmax [1, 8] [µmol/min] | Km [1, 9] [µM] | kcat [1, 9] [s⁻¹] | Vmax ([2]; 10 nM peroxidase) [nmol/s] | kcat [2] [s⁻¹] | Vmax [3, 8] [µmol/min] | kcat [3, 9] [s⁻¹] | Vmax ([4]; 100 μM H2O2, 10 nM peroxidase, phosphate pH 6.0, 25° C.) [µmol/min] | kcat ([4]; 100 μM H2O2, phosphate pH 6.0, 25° C.) [s⁻¹] | Vmax [5, 10] [µmol/min] | kcat [5, 11] [s⁻¹] | kcat/K0.5 ([5]; KI, 0.1 mM H2O2, pH 7.2) [M⁻¹ s⁻¹] | Vmax [6, 10] [µmol/min] | kcat [6, 11] [s⁻¹] | kcat/K0.5 ([6]; KI, 0.1 mM H2O2, pH 7.2) [M⁻¹ s⁻¹] | Vmax [7, 10] [µmol/min] | kcat [7, 11] [s⁻¹] | kcat/K0.5 ([7]; KI, 0.1 mM H2O2, pH 7.2) [M⁻¹ s⁻¹] |
| --- | --- | --- | --- | --- | --- | --- | --- | --- | --- | --- | --- | --- | --- | --- | --- | --- | --- | --- |
| CCn1c(=NN=c2sc3cc(S(=O)(=O)O)ccc3n2CC)sc2cc(S(=O)(=O)O)ccc21 [ABTS, 2,2′-azino-bis (3-ethylbenzothiazoline-6-sulfonic acid)] | 0.0073 | 560 | 95 | 0.0149 | 7.45 | 0.004 | 57 | 0.00076 | 6.3 |  |  |  |  |  |  |  |  |  |
| [I-].[K+] [iodide] |  |  |  |  |  |  |  |  |  | 0.0027 | 13.7 | 118600 | 0.0021 | 10.6 | 85100 | 0.0029 | 14.7 | 10600 |
